One series relates to female DIO mice. Description: Multiple dose diet-induced obese (DIO) mice: body weight and food consumption. Particulars: vs vehicle or dulaglutide. It is filed as in vivo, Female C57BL/6N mice. As for the experimental part:
Female C57BL/6N Charles River mice were housed in groups in a specific pathogen-free barrier facility on a 12 hour light/12 hour dark cycle with free access to water and standard or high-fat diet (ssniff adjusted Fat Diet E15797). After 20 weeks of pre-feeding on high-fat diet, mice were stratified for body weight to treatment groups (n=8), so that each group had similar mean body weight. An age-matched group with ad-libitum access to standard chow (ssniff R/M-H, V1534-0) was included as standard control group. A dulaglutide treated group was also included as comparator. Prior to the start of treatment, mice were subcutaneously (s.c.) injected with vehicle solution and weighed for 3 days to acclimate them to the procedures.
1) Acute effect on blood glucose in fed female DIO mice: initial blood samples were taken just before first administration (s.c.) of vehicle (phosphate buffer solution) or first administration of GLP-1 RA/FGF21 Fc fusion proteins (dissolved in phosphate buffer), respectively. The volume of administration was 5 or 10 mL/kg, depending on concentration of stock solution. The animals had access to water and their corresponding diet during the experiment. Blood glucose levels were measured at t=0 hours, t=1 hour, t=2 hours, t=3 hours, t=4 hours, t=6 hours and t=24 hours (method: Accu-Check glucometer). Blood sampling was performed by tail incision without anaesthesia.
2) Chronic effect on body weight in female DIO mice: mice were treated once weekly, every 8th day in the morning at the beginning of the light phase with either vehicle or test compounds for 4 weeks. Body weight and food consumption were recorded daily. Two days before start of treatment and on day 26, total fat mass was measured by nuclear magnetic resonance (NMR).

Series [1] deals with female diabetic db/db mice. Nature of the series: Blood glucose-lowering effects of multiple subcutaneous doses in fed, female diabetic db/db mice. The series is classed as in vivo. The note with it: vs vehicle or dulaglutide. The protocol:
Female, healthy, lean (BKS.Cg-(lean)/OlaHsd or BKS.Cg-Dock7(m)+/+Lepr(db)J) and diabetes-prone, obese db/db (BKS.Cg-+Leprdb/+Leprdb/OlaHsd or BKS.CG-m+/+Lepr(db)/J) mice were ordered from Envigo RMS Inc. or Charles River Laboratories. All animals were group housed in shoebox cages with wood chip bedding and were acclimated for approximately 2 to 3 weeks prior to dosing phase.
Mice were housed under vivarium conditions including a 12 hour light/12 hour dark cycle (light phase 04:00 AM-4:00 PM), a room temperature between 20-26° C. and a relative humidity between 30-70%. All animals had free access to Greenfield city water and a Purina Fomulab Diet 5008. At the study start mice were approximately 10-12 weeks old.
Blood was collected for a HbA1c and blood glucose measurement on day 9 via tail clips. Blood glucose concentrations were measured using AlphaTRAK glucometers extended range (code 29 strips). Glucometer measurements were taken prior to any other in life activities and were performed in duplicate. If the values differed by more than 20 mg/dL (calculated glucometer value) a third value was recorded. Body mass measurements were collected on days 9 and 15. HbA1c and body mass values were used for block randomization. Animals were assigned to treatment groups (n=8/group) and to new cages and cage mates (n=4 animals/cage) on day 15 according to block randomization results. The lean group was included in the study as an age-matched, healthy reference group.
Animals were either treated with a subcutaneous injection volume of 5 ml/kg of vehicle (sterile PBS), dulaglutide, SEQ ID NO: 8 or SEQ ID NO: 7 once on days 1, 8, 15, 22, and 27 of the dosing phase. Dosing was completed between 10:00 and 12:00 AM and was adjusted to the most recent body mass recording of each individual. Injection solutions including Trulicity (Dulaglutide Pen) were prepared by addition of sterile PBS to the stock solutions or Pen formulation in order to achieve the appropriate concentrations.
1) Blood glucose concentrations in morning-fed animals: Animals had unlimited access to water and feed during the experiment. Blood glucose was measured prior to any other in life activities between 10:00 to 12:00 AM on days 1, 2, 8, 9, 15, 16, 22, 23, 27, and 28 as well as 24 hours post-dose on days 2, 9, 16, 23, and 28. In addition, on days 1 and 22, blood was collected 1, 2, 3, 4, 6 and 24 hours post-dose (FIG. 11). Approximately 5 μL of blood were collected via tail clip and blood glucose measurements were performed in duplicate using AlphaTRAK glucometers with the extended range (code 29 strips). If the values differed by more than 20 mg/dL (calculated glucose value) then a third value was recorded. The Area Under the Curve (AUC) was calculated by the trapezoid method for each individual and time period as indicated.
2) HbA1c analysis: Blood was collected via a tail clip on day 9 of the pre-dose phase and day 36 of the dosing phase. Blood was collected into a 5 μL non-additive micro capillary tube and immediately placed into a centrifuge tube containing hemolysate. The tube was shaken vigorously to mix the hemolysate with the blood and placed on a rocker to ensure the blood and reagent were completely mixed.
Statistical analyses: Data are depicted as means±SEM. […]

The nature of series [2]: Conformational and thermal stability on UNit (intrinsic fluorescence and static light scattering). It is filed as physicochemical. The note with it: 5 mg/mL in phosphate buffer pH 7.4. The protocol:
Conformational stability and propensity to aggregate was determined simultaneously for the GLP-1RA/FGF21 Fc fusion proteins using a UNit (Unchained Labs, Calif., USA). The UNit combines the analysis of intrinsic fluorescence of a protein or polypeptide to detect unfolding of the protein or polypeptide and a Static Light Scattering (SLS) measurement in order to investigate aggregation behavior.
Data were acquired for the fusion proteins at a concentration of 5 mg/mL formulated in phosphate buffer at pH 7.4. A volume of 9 μL of each sample were loaded into a UNi capillary holder and analyzed in triplicate on the UNit. The temperature was increased from 20 to 95° C. at a constant linear rate of 0.3° C./minutes. The BaryCentric Mean (BCM) indicating the intrinsic fluorescence and SLS signals detected with a 266 nm laser were plotted against the applied temperature in order to obtain melting temperatures (Tm) and aggregation onset temperatures (Tagg). Data were analyzed using the UNit Analysis software v.

In another series the target is T1, Mouse GLP-1R (Mus musculus, UniProt O35659).
T1 construct: expressed in transfected cells; host or cells: HEK-293
T1 sequence (O35659 22-463): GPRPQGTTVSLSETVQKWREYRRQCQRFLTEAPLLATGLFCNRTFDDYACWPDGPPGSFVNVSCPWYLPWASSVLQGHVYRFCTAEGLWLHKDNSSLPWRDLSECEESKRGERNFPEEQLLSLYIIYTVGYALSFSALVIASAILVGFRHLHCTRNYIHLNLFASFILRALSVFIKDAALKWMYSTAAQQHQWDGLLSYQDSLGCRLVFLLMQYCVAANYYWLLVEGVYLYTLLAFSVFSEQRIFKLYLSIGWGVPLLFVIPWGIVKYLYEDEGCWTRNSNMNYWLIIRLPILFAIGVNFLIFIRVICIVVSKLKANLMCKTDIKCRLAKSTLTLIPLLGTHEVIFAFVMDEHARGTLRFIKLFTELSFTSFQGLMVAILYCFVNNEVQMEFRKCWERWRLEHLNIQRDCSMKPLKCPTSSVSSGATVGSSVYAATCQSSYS
Description: HTRF cAMP assay in HEK-293 cells, mouse GLP-1R. It is filed as cell-based. A general note: In TR-FRET formats the signal depends on donor and acceptor labels being close together.

For another series, the target named is T2, Human GLP-1R (Homo sapiens, UniProt P43220).
T2 construct: expressed in transfected cells; host or cells: HEK-293
T2 sequence (P43220 24-463): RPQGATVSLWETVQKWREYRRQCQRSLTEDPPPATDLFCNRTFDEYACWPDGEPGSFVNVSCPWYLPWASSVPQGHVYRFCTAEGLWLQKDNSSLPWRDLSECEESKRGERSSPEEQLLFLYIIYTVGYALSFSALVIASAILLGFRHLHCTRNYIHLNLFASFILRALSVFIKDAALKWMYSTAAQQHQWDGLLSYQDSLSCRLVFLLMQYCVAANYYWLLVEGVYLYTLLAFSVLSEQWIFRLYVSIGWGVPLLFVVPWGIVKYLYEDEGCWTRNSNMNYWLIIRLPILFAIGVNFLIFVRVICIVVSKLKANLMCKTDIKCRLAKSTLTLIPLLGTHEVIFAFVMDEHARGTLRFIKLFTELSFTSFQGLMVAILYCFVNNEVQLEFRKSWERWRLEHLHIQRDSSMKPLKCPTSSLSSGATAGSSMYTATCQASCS
Description: HTRF cAMP assay in HEK-293 cells, human GLP-1R. It is filed as cell-based.

A further series has as its target T3, Monkey GLP-1R (Macaca fascicularis, UniProt F8V479).
T3 construct: expressed in transfected cells; host or cells: HEK-293
Description: HTRF cAMP assay in HEK-293 cells, monkey GLP-1R. The series is classed as cell-based.

T3 sequence (F8V479 24-463): as the sequence (P43220 24-463) above, with S112N, F120S, S202G, L205V, L237F, W241R, I249V counted along it

B1: SEQ ID NO: 7: GLP-1RA/FGF21 Fc fusion protein (protein)
chain: GHGEGTFTSDKSKQLEEEAVRLFIEWLKAGGPKKIRYSGGGGGGGSGGGGSGGGGSA[… human IgG1 Fc with changes …]GGGSGSAHPIPDSSPLLQFGGQVRQRYLYTDDACQTEAHLEIREDGTVGGAADQSPESLLQLKALKPGVIQILGVKTSRFLCQRPDGALYGSLHFDPEACSFRELLLEDGYNVYQSEAHGLPLHLPGCKSPHRDPAPRGPARFLPLPGLPPAPPEPPGILAPQPPDVGSSDPLSMVGSQGRSPSYAS
modifications: Fusion Protein
notes: GLP-1RA/FGF21 Fc fusion protein
In the case of B1, the body weight entry with female DIO mice (once weekly dosing for 4 weeks) is given as “significantly lost more body weight than the vehicle or dulaglutide treated animals”. The cumulative food consumption entry in the series with female DIO mice (once weekly dosing, end of the study) is given as “cumulatively consumed more food than vehicle or dulaglutide treated animals”. Also, the blood glucose levels entry in series [1] (24 hour profile) is “lowering effect on blood glucose levels was significantly greater than in vehicle or dulaglutide treated animals”. For the same molecule, the HbA1c result in series [1] (end of the study (day 36)) is “more pronounced suppression of HbA1c increase”.

B2: 5 (protein)
chain: GHGEGTFTSDKSKQLEEEAVRLFIEWLKAGGPKKIRYSGGGGGGGSGGGGSGGGGSA[… human IgG4 Fc with changes …]GGGSGSAHPIPDSSPLLQFGGQVRQRYLYTDDACQTEAHLEIREDGTVGGAADQSPESLLQLKALKPGVIQILGVKTSRFLCQRPDGALYGSLHFDPEACSFRELLLEDGYNVYQSEAHGLPLHLPGCKSPHRDPAPRGPARFLPLPGLPPAPPEPPGILAPQPPDVGSSDPLSMVYPSQGRSPSYAS
modifications: Fusion Protein
Take B2: the “Tagg (aggregation onset temperature)” value in series [2] (UNit SLS 266 nm) was 63.2 °C. Further, the “Tm (melting temperature)” value in series [2] (UNit) turned out to be 62.6 °C. Moreover, the EC50 with Mouse GLP-1R worked out at 0.0965 nM; with Human GLP-1R it was 0.125 nM; in the series with Monkey GLP-1R, 0.196 nM.

For orientation: EC50 means the concentration giving half of the maximal effect.
